# The list shows a part of the results.
# B1: MIG/CXCL9 (Homo sapiens) (protein)
# chain: TPVVRKGRCSCISTNQGTIHLQSLKDLKQFAPSPSCEKIEIIIATLKNGVQTCLNPDSADVKELIKKTEKQVSQKKKQKNGKKHQKKKVLKVRKSQRSRQKKTT
# Experiments:
# Test in all cases: glycan array binding signal (z-score within array); higher = stronger binding
# Settings in all cases: glycan notation: IUPAC condensed, linker removed
# Fuc(a1-2)Gal = molecular target: Fuc(a1-2)Gal
# Procedure, shortened: (§1)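 Glycan array binding is given as a within-array Z-score, which can be read as non-binding when negative. The arrays, 3228 of them, came from the Consortium for Functional Glycomics database and were retained only where the protein sequence was available. Z-scores were averaged across arrays of the same protein sequence at different concentrations or buffers and across linkers.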
# Fuc(a1-2)Gal(b1-3)GalNAc = molecular target: Fuc(a1-2)Gal(b1-3)GalNAc
# Procedure, shortened: as §1
# [1] = molecular target: Fuc(a1-2)Gal(b1-3)GalNAc(b1-3)Gal
# Procedure, shortened: as §1
# [2] = molecular target: Fuc(a1-2)Gal(b1-3)GalNAc(b1-3)Gal(a1-4)Gal(b1-4)Glc
# Procedure, shortened: as §1
# [3] = molecular target: Fuc(a1-2)Gal(b1-3)GalNAc(b1-4)[Neu5Ac(a2-3)]Gal(b1-4)Glc
# Procedure, shortened: as §1
# Fuc(a1-2)Gal(b1-3)GlcNAc = molecular target: Fuc(a1-2)Gal(b1-3)GlcNAc
# Procedure, shortened: as §1
# [4] = molecular target: Fuc(a1-2)Gal(b1-3)GlcNAc(b1-3)Gal(b1-4)Glc
# Procedure, shortened: as §1
# [5] = molecular target: Fuc(a1-2)Gal(b1-3)[Fuc(a1-4)]GlcNAc
# Procedure, shortened: as §1
# Fuc(a1-2)Gal(b1-4)Glc = molecular target: Fuc(a1-2)Gal(b1-4)Glc
# Procedure, shortened: as §1
# Fuc(a1-2)Gal(b1-4)GlcNAc = molecular target: Fuc(a1-2)Gal(b1-4)GlcNAc
# Procedure, shortened: as §1
# [6] = molecular target: Fuc(a1-2)Gal(b1-4)GlcNAc(b1-3)Gal(b1-4)GlcNAc
# Procedure, shortened: as §1
# [7] = molecular target: Fuc(a1-2)Gal(b1-4)GlcNAc(b1-3)Gal(b1-4)GlcNAc(b1-3)Gal(b1-4)GlcNAc
# Procedure, shortened: as §1
# [8] = molecular target: Fuc(a1-2)Gal(b1-4)[Fuc(a1-3)]GlcNAc
# Procedure, shortened: as §1
# [9] = molecular target: Fuc(a1-2)Gal(b1-4)[Fuc(a1-3)]GlcNAc(b1-3)Gal(b1-4)[Fuc(a1-3)]GlcNAc
# Procedure, shortened: as §1
# [10] = molecular target: Fuc(a1-2)Gal(b1-4)[Fuc(a1-3)]GlcNAc(b1-3)Gal(b1-4)[Fuc(a1-3)]GlcNAc(b1-3)Gal(b1-4)[Fuc(a1-3)]GlcNAc
# Procedure, shortened: as §1
# Fuc(a1-2)GlcNAc = molecular target: Fuc(a1-2)GlcNAc
# Procedure, shortened: as §1
# Fuc(a1-2)[Gal(a1-3)]Gal = molecular target: Fuc(a1-2)[Gal(a1-3)]Gal
# Procedure, shortened: as §1
# [11] = molecular target: Fuc(a1-2)[Gal(a1-3)]Gal(b1-3)GlcNAc
# Procedure, shortened: as §1
# [12] = molecular target: Fuc(a1-2)[Gal(a1-3)]Gal(b1-4)Glc
# Procedure, shortened: as §1
# [13] = molecular target: Fuc(a1-2)[Gal(a1-3)]Gal(b1-4)GlcNAc
# Procedure, shortened: as §1
# [14] = molecular target: Fuc(a1-2)[Gal(a1-3)]Gal(b1-4)[Fuc(a1-3)]GlcNAc
# Procedure, shortened: as §1
# [15] = molecular target: Fuc(a1-2)[Gal(a1-4)]Gal(b1-4)GlcNAc
# Procedure, shortened: as §1
# [16] = molecular target: Fuc(a1-2)[GalNAc(a1-3)]Gal
# Procedure, shortened: as §1
# [17] = molecular target: Fuc(a1-2)[GalNAc(a1-3)]Gal(b1-3)GlcNAc
# Procedure, shortened: as §1
# [18] = molecular target: Fuc(a1-2)[GalNAc(a1-3)]Gal(b1-4)Glc
# Procedure, shortened: as §1
# [19] = molecular target: Fuc(a1-2)[GalNAc(a1-3)]Gal(b1-4)GlcNAc
# Procedure, shortened: as §1
# [20] = molecular target: Fuc(a1-2)[GalNAc(a1-3)]Gal(b1-4)[Fuc(a1-3)]GlcNAc
# Procedure, shortened: as §1
# [21] = molecular target: Fuc(a1-2)[GalNAc(a1-4)]Gal(b1-4)GlcNAc
# Procedure, shortened: as §1
# [22] = molecular target: Fuc(a1-2)[GalNAc(b1-3)]Gal
# Procedure, shortened: as §1
# Fuc(a1-3)GlcNAc = molecular target: Fuc(a1-3)GlcNAc
# Procedure, shortened: as §1
# [23] = molecular target: Fuc(a1-3)[Gal(b1-4)]GlcNAc
# Procedure, shortened: as §1
# [24] = molecular target: Fuc(a1-3)[Gal(b1-4)]GlcNAc(b1-4)Gal(b1-4)[Fuc(a1-3)]GlcNAc
# Procedure, shortened: as §1
# [25] = molecular target: Fuc(a1-3)[Gal(b1-4)]GlcNAc(b1-4)Gal(b1-4)[Fuc(a1-3)]GlcNAc(b1-4)Gal(b1-4)[Fuc(a1-3)]GlcNAc
# Procedure, shortened: as §1
# [26] = molecular target: Fuc(a1-3)[Gal3S(b1-4)]GlcNAc
# Procedure, shortened: as §1
# [27] = molecular target: Fuc(a1-3)[GalNAc(b1-4)]GlcNAc
# Procedure, shortened: as §1
# Fuc(a1-4)GlcNAc = molecular target: Fuc(a1-4)GlcNAc
# Procedure, shortened: as §1
# Fuc(b1-3)GlcNAc = molecular target: Fuc(b1-3)GlcNAc
# Procedure, shortened: as §1
# Gal(a1-2)Gal = molecular target: Gal(a1-2)Gal
# Procedure, shortened: as §1
# Gal(a1-3)Gal = molecular target: Gal(a1-3)Gal
# Procedure, shortened: as §1
# Gal(a1-3)Gal(b1-3)GlcNAc = molecular target: Gal(a1-3)Gal(b1-3)GlcNAc
# Procedure, shortened: as §1
# Gal(a1-3)Gal(b1-4)Glc = molecular target: Gal(a1-3)Gal(b1-4)Glc
# Procedure, shortened: as §1
# Gal(a1-3)Gal(b1-4)GlcNAc = molecular target: Gal(a1-3)Gal(b1-4)GlcNAc
# Procedure, shortened: as §1
# [28] = molecular target: Gal(a1-3)Gal(b1-4)[Fuc(a1-3)]GlcNAc
# Procedure, shortened: as §1
# Gal(a1-3)GalNAc = molecular target: Gal(a1-3)GalNAc
# Procedure, shortened: as §1
# [29] = molecular target: Gal(a1-3)[Gal(a1-4)]Gal(b1-4)GlcNAc
# Procedure, shortened: as §1
binder,measurement,setting,value
B1,glycan array binding signal (z-score),Fuc(a1-2)Gal,-0.025
same,glycan array binding signal (z-score),Fuc(a1-2)Gal(b1-3)GalNAc,-0.29
same,glycan array binding signal (z-score),[1],-0.053
same,glycan array binding signal (z-score),[2],-0.251
same,glycan array binding signal (z-score),[3],-0.193
same,glycan array binding signal (z-score),Fuc(a1-2)Gal(b1-3)GlcNAc,-0.293
same,glycan array binding signal (z-score),[4],-0.456
same,glycan array binding signal (z-score),[5],-0.459
same,glycan array binding signal (z-score),Fuc(a1-2)Gal(b1-4)Glc,-0.36
same,glycan array binding signal (z-score),Fuc(a1-2)Gal(b1-4)GlcNAc,-0.298
same,glycan array binding signal (z-score),[6],-0.298
same,glycan array binding signal (z-score),[7],-0.442
same,glycan array binding signal (z-score),[8],-0.26
same,glycan array binding signal (z-score),[9],-0.383
same,glycan array binding signal (z-score),[10],-0.37
same,glycan array binding signal (z-score),Fuc(a1-2)GlcNAc,-0.36
same,glycan array binding signal (z-score),Fuc(a1-2)[Gal(a1-3)]Gal,-0.368
same,glycan array binding signal (z-score),[11],-0.427
same,glycan array binding signal (z-score),[12],-0.327
same,glycan array binding signal (z-score),[13],-0.314
same,glycan array binding signal (z-score),[14],-0.279
same,glycan array binding signal (z-score),[15],-0.079
same,glycan array binding signal (z-score),[16],-0.409
same,glycan array binding signal (z-score),[17],-0.28
same,glycan array binding signal (z-score),[18],-0.079
same,glycan array binding signal (z-score),[19],-0.244
same,glycan array binding signal (z-score),[20],-0.206
same,glycan array binding signal (z-score),[21],-0.483
same,glycan array binding signal (z-score),[22],-0.4
same,glycan array binding signal (z-score),Fuc(a1-3)GlcNAc,-0.28
same,glycan array binding signal (z-score),[23],-0.333
same,glycan array binding signal (z-score),[24],-0.281
same,glycan array binding signal (z-score),[25],-0.33
same,glycan array binding signal (z-score),[26],-0.445
same,glycan array binding signal (z-score),[27],-0.307
same,glycan array binding signal (z-score),Fuc(a1-4)GlcNAc,-0.251
same,glycan array binding signal (z-score),Fuc(b1-3)GlcNAc,-0.209
same,glycan array binding signal (z-score),Gal(a1-2)Gal,-0.269
same,glycan array binding signal (z-score),Gal(a1-3)Gal,-0.114
same,glycan array binding signal (z-score),Gal(a1-3)Gal(b1-3)GlcNAc,-0.409
same,glycan array binding signal (z-score),Gal(a1-3)Gal(b1-4)Glc,-0.378
same,glycan array binding signal (z-score),Gal(a1-3)Gal(b1-4)GlcNAc,-0.15
same,glycan array binding signal (z-score),[28],-0.261
same,glycan array binding signal (z-score),Gal(a1-3)GalNAc,-0.247
same,glycan array binding signal (z-score),[29],0.463

# From the supplement of paper PMC8728848
